IC50 is the fitted dose that halves viability relative to control wells, and lower means more sensitive; a limit (>, <) means that the fit lies beyond the doses tested. AUC sums up the same curve from the lowest dose to the 256-fold higher top dose; it is 1 without any effect and falls as sensitivity rises. For some of these results: An inferred top dose comes from the curve model; the source does not state it. For some of these results: Where an entry number is given, a second screen of the drug exists; the two often differ.
Legend:
Experiment in all cases: Viability of human cancer cell lines after 72 h of drug (GDSC screen)
[1] = compound: Cc1ccc(F)c(NC(=O)Nc2ccc(-c3cccc4[nH]nc(N)c34)cc2)c1 [ABT-869]; settings: top dose 1.024 µM; top dose inferred
Procedure: (§1)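 Human cancer cell lines in 384-well plates, medium with 10% serum, drug for 72 h over a 256-fold dose range (nine 2-fold or five 4-fold steps up to the top dose). Adherent lines were fixed and stained with the nucleic acid dye Syto60, suspension lines read with resazurin; signal relative to control wells, capped at 0 and 100%. One two-parameter sigmoid per drug and line, fitted in a mixed model over all curves with the slope shared within a line.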

[2] = compound: CCn1c(-c2nonc2N)nc2cnc(Oc3cccc(NC(=O)c4ccc(OCCN5CCOCC5)cc4)c3)cc21 [GSK269962A]; settings: top dose inferred
Procedure: as §1

[3] = compound: Nc1ccn([C@@H]2O[C@H](CO)[C@@H](O)[C@@H]2O)c(=O)n1 [Cytarabine]; settings: top dose 2 µM
Procedure: as §1

[4] = compound: COc1cc(O)c2c(c1)/C=C/C[C@H](O)[C@H](O)C(=O)/C=C\C[C@H](C)OC2=O [(5Z)-7-Oxozeaenol]; settings: top dose 10 µM; top dose inferred
Procedure: as §1

[5] = compound: C/C=C(/C)C(=O)O[C@H]1C(C)=C2[C@H]([C@@H]1OC(=O)CCCCCCC)[C@@](C)(OC(C)=O)C[C@H](OC(=O)CCC)[C@@]1(O)[C@H]2OC(=O)[C@@]1(C)O [Thapsigargin]; settings: top dose 0.512 µM; top dose inferred
Procedure: as §1

[6] = compound: Cc1cnc(-c2cnc(NCCNc3ccc(C#N)cn3)nc2-c2ccc(Cl)cc2Cl)[nH]1 [CHIR-99021]
Procedure: as §1

[7] = compound: C[C@]1(c2nc3c(C(N)=O)cccc3[nH]2)CCCN1 [ABT-888]; settings: top dose 5 µM; top dose inferred
Procedure: as §1

[8] = compound: O=c1cc(-c2cccc3c2Sc2ccccc2S3)oc(N2CCOCC2)c1 [KU-55933]; settings: top dose 10 µM
Procedure: as §1

[9] = compound: Cc1ccc(-c2c(C(=O)CCl)n(CCCO)c3ncnc(N)c23)cc1 [CMK]; settings: top dose 4 µM; top dose inferred
Procedure: as §1

[10] = compound: C=CC(=O)Nc1cc(-n2c(=O)ccc3cnc4ccc(-c5cn[nH]c5)cc4c32)ccc1C [QL-X-138]; settings: top dose 10.24 µM; top dose inferred
Procedure: as §1

[11] = compound: COc1cc2ncnc(-n3nc(-c4ccccn4)nc3N)c2cc1OC [CP466722]; settings: top dose 16 µM; top dose inferred
Procedure: as §1

[12] = compound: COc1nc(C)cnc1NS(=O)(=O)c1cccnc1-c1ccc(-c2nnco2)cc1 [Zibotentan]; settings: top dose 20 µM; top dose inferred
Procedure: as §1

[13] = compound: COc1cc(N2CCC(O)CC2)ccc1Nc1cc(Nc2ccccc2S(=O)(=O)C(C)C)c2cc[nH]c2n1 [MPS-1-IN-1]; settings: top dose 20 µM; top dose inferred
Procedure: as §1

[14] = top dose 2.5 µM, screen: GDSC drug entry 127
[15] = top dose 5 µM, screen: GDSC drug entry 1192
[16] = top dose 2.56 µM, screen: GDSC drug entry 154
[17] = top dose 10 µM, screen: GDSC drug entry 1241, top dose inferred

Cell Line	AUC [1]	IC50 [1] [nM]	AUC [2, 14]	IC50 [2, 14] [nM]	AUC [2, 15]	IC50 [2, 15] [nM]	AUC [3]	IC50 [3] [nM]	AUC [4]	IC50 [4] [nM]	AUC [5]	IC50 [5] [nM]	AUC [6, 16]	IC50 [6, 16] [nM]	AUC [6, 17]	IC50 [6, 17] [nM]	AUC [7]	IC50 [7] [nM]	AUC [8]	IC50 [8] [nM]	AUC [9]	IC50 [9] [nM]	AUC [10]	IC50 [10] [nM]	AUC [11]	IC50 [11] [nM]	AUC [12]	IC50 [12] [nM]	AUC [13]	IC50 [13] [nM]
KARPAS-231 (B-cell leukaemia, suspension)	0.994	> 1020	0.804	927	0.95	> 5000	0.275	34.5	0.823	4210	0.174	4.67	0.994	> 2560	0.952	> 10000	0.994	> 5000	0.844	4840	0.742	1000	0.173	92.8	–	–	–	–	–	–
LU-65 (large cell lung carcinoma, suspension)	0.982	> 1020	–	–	–	–	0.987	> 2000	0.966	> 10000	0.538	41.5	–	–	–	–	0.987	> 5000	0.978	> 10000	0.947	> 4000	0.845	9460	0.768	7090	0.986	> 20000	0.787	10400
NB1 (neuroblastoma, semi-adherent)	0.972	> 1020	0.886	> 2500	0.841	4020	0.753	732	0.721	2840	0.497	31.3	0.926	> 2560	0.958	> 10000	0.984	> 5000	0.977	> 10000	0.88	> 4000	0.886	> 10200	–	–	0.975	> 20000	0.71	5240
NCI-H64 (small cell lung carcinoma, suspension)	0.995	> 1020	0.996	> 2500	–	–	0.971	> 2000	–	–	0.206	5.97	0.978	> 2560	–	–	0.995	> 5000	0.992	> 10000	0.934	3770	0.601	1130	0.744	3980	0.996	> 20000	0.988	> 20000
NCI-H510A (small cell lung carcinoma, semi-adherent)	0.99	> 1020	0.849	1650	–	–	0.781	758	–	–	0.522	36.5	0.989	> 2560	–	–	0.99	> 5000	0.982	> 10000	0.937	> 4000	0.841	6300	0.897	> 16000	0.989	> 20000	0.966	> 20000
NCI-SNU-16 (stomach, suspension)	0.99	> 1020	0.976	> 2500	0.923	> 5000	0.979	> 2000	–	–	0.616	64	0.991	> 2560	–	–	0.988	> 5000	0.968	> 10000	0.952	> 4000	0.984	> 10200	0.983	> 16000	0.991	> 20000	0.989	> 20000
RCC10RGB (kidney, adherent)	0.969	> 1020	0.775	2280	–	–	0.916	> 2000	–	–	0.846	> 512	0.768	2160	–	–	0.961	> 5000	0.958	> 10000	0.861	> 4000	0.882	> 10200	0.919	> 16000	0.941	> 20000	0.899	> 20000
RPMI-8226 (myeloma, suspension)	–	–	0.971	> 2500	0.949	> 5000	0.968	> 2000	0.674	1780	0.208	5.15	–	–	–	–	0.952	> 5000	0.908	> 10000	0.921	> 4000	0.459	502	0.745	4470	0.984	> 20000	0.888	17400
SUP-B15 (lymphoblastic leukaemia, suspension)	0.986	> 1020	0.754	807	–	–	0.446	89.6	–	–	0.463	25.5	0.964	> 2560	–	–	0.962	> 5000	0.934	> 10000	0.787	1670	0.244	122	0.594	1790	0.981	> 20000	0.867	16800
SW954 (urogenital system, adherent)	0.977	> 1020	0.914	> 2500	–	–	0.971	> 2000	–	–	0.331	10.7	0.985	> 2560	–	–	0.985	> 5000	0.95	> 10000	0.92	> 4000	0.723	2780	0.696	3580	0.985	> 20000	0.84	14000
